# The whole screen tested about 270,000 compounds, of which about 620 (0.23%) were called active. Inconclusive means that the source gave no clear call. Such entries were picked first, then a sample of the others. Calls come from the whole dose curve; as a rule, active = well fitted inhibition curve with a large enough effect in the polarisation, with a control signal flat (not every such curve was filed as active); inconclusive = small, poorly fitted or top-dose-only effect, or effect the other way, or a change in a side signal; inactive = no such curve, though single readings can be large or run the other way; the % refers to the polarisation. Potencies beside an inconclusive call are fits to weak or partial responses and may not hold up. “Side channel” marks fits to a control or component signal instead of the main read-out.
# Biological target: Menin (Homo sapiens) (UniProt O00255)
# UniProt O00255, sequence (O00255 whole entry, looked up): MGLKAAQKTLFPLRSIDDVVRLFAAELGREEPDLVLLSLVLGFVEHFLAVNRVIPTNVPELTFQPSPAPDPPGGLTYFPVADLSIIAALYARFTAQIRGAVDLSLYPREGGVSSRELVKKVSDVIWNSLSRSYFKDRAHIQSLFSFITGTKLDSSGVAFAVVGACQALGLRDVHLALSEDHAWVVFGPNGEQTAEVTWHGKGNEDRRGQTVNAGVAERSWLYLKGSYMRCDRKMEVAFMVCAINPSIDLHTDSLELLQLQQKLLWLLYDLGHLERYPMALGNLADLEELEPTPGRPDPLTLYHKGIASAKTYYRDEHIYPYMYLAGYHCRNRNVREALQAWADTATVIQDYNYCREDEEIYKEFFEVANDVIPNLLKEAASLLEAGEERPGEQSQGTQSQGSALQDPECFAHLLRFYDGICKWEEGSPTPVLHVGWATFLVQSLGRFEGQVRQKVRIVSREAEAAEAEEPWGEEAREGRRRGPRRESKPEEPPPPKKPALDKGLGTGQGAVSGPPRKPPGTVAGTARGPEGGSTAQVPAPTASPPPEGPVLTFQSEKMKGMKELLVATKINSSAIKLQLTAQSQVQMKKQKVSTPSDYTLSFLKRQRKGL
# Experiment: qHTS Assay for Inhibitors Targeting the Menin-MLL Interaction in MLL Related Leukemias: Competition With Texas Red Labeled MLL-derived Mutant Peptide
# Conditions: fluorescence polarization; series mostly up to 61.6 µM
# Potency is the fitted concentration of half-maximal effect; tags give direction and shape of the fitted curve or compound fluorescence and quenching.
row,Compound,Potency
1,COCCn1c(SCC(=O)Nc2ccccc2)nc2c1c(=O)[nH]c(=O)n2C,inactive
2,Cc1ccc(C(C2=C(O)CC(C)(C)CC2=O)C2C(=O)CC(C)(C)CC2=O)s1 (centres undefined),inactive
3,COc1ccc(CCCC(=O)N/N=C/c2ccccc2OC)cc1,"inconclusive: 25.1 µM [inhibitor, single point]"
4,CO/N=C/CC(=O)c1cnc(-c2ccc(Cl)cc2)s1,"inconclusive: 35.5 µM [quencher, side channel, single point]"
5,O=C(Nc1nc(-c2ccc(-c3ccccc3)cc2)cs1)C1=COCCO1,"inconclusive: 31.6 µM [inhibitor, partial curve]"
6,COc1cc2ccccc2cc1C(=O)Nc1ccc(O)cc1,"inconclusive: 15.8 µM [quencher, side channel, partial curve]"
7,O=C1CCN(Cc2ccccc2)CCN1CCSc1ccccc1,"inconclusive: 12.6 µM [fluorescent, side channel, partial curve]"
8,O=C1c2ccsc2SCCN1Cc1ccc(Cl)cc1,inactive
9,Cc1cnc(-c2nnc(N(C)C(=O)C3CCOC3)s2)cn1 (centres undefined),inactive
10,COc1cc2nc(N3CCN(C(=O)C4CCCO4)CC3)nc(N)c2cc1OC (centres undefined),"inconclusive: 11.2 µM [quencher, side channel, partial curve]"
11,Cc1ccc(-c2nnc(N3CCC(C)CC3)c3ccccc23)cc1,"inconclusive: 7.94 µM [fluorescent, side channel, partial curve]"
12,Cc1ccccc1OCc1nc(-c2ccc(NC(=O)c3ccco3)cc2)no1,"inconclusive: 5.01 µM [quencher, side channel, partial curve]"
13,COc1ccc(-c2noc(CSc3nnc(Cc4ccccc4)n3-c3cccc(C)c3)n2)cc1OC,"inconclusive: 12.6 µM [inhibitor, partial curve]"
14,O=C(N/N=C\c1ccc(CNS(=O)(=O)c2ccc(Cl)cc2)o1)C(=O)Nc1ccc(Oc2ccccc2)cc1,"inconclusive: 10 µM [inhibitor, partial curve]"
15,COc1ccc(C(CC(=O)Nc2cc([N+](=O)[O-])ccc2OC)c2ccccc2)cc1 (centres undefined),"inconclusive: 2.24 µM [quencher, side channel, partial curve]"
16,COc1ccc(/C=N/NC(=S)NC2CCS(=O)(=O)C2)cc1 (centres undefined),"inconclusive: 39.8 µM [inhibitor, single point]"
17,Cc1ccc(NC(=O)c2ccc(-n3cccn3)c([N+](=O)[O-])c2)cc1,"inconclusive: 31.6 µM [quencher, side channel, single point]"
18,COc1ccc(C2=NN(c3nc(-c4ccc(CNC(C)=O)cc4)cs3)C(c3ccco3)C2)cc1 (centres undefined),"inconclusive: 7.08 µM [quencher, side channel, partial curve]"
19,CNC(=S)N1CCN(S(=O)(=O)c2ccc3ccccc3c2)CC1,inactive
20,Cc1ccc(C)c(N2CCN(CCCNC(=O)Cn3cccc3C(=O)c3ccccc3C)CC2)c1,"inconclusive: 2.24 µM [fluorescent, side channel, full curve]"

row,Compound,Potency
1,COc1ccccc1NS(=O)(=O)c1cc(NC(=O)CNC(=O)c2ccc(C)s2)ccc1Cl,"inconclusive: 20 µM [inhibitor, single point]"
2,CCn1c(CN2CCN(Cc3ccc(C)cc3)C(CCO)C2)nc2ccccc21 (centres undefined),"inconclusive: 3.98 µM [fluorescent, side channel, full curve, poor fit]"
3,COC(=O)c1cc(N2C(=O)C3C(C2=O)C2(C)C=CC3(C)O2)ccc1Cl (centres undefined),"inconclusive: 17.8 µM [quencher, side channel, partial curve]"
4,COc1ccc(C)cc1NC(=O)c1ccc(NS(=O)(=O)c2cccs2)cc1,"inconclusive: 11.2 µM [quencher, side channel, partial curve]"
5,CCCCCC(N)=O,inactive
6,C/C(=N\NC(=O)c1cccc(N/N=C(\C)c2cc(O)ccc2O)c1)c1cc(O)ccc1O,"inconclusive: 12.6 µM [quencher, side channel, partial curve]"
7,O=[N+]([O-])c1ccc(Oc2ccc(S(=O)(=O)Nc3ccccc3)cc2)cc1,"inconclusive: 17.8 µM [quencher, side channel, single point]"
8,CCc1ccc(CNc2ccc(O)cc2)cc1,active: 35.5 µM
9,COc1ccc(C(=O)C=CNNC(=O)c2ccc(Cl)cc2)cc1,"inconclusive: 20 µM [quencher, side channel, partial curve]"
10,Cc1ccc(C(=O)Nc2ccccc2C(=O)NCc2ccccc2)cc1,"inconclusive: 17.8 µM [quencher, side channel, single point]"
11,N#C/C(=C\c1c[nH]c2ccccc12)C(N)=O,inactive
12,Nc1nc(-c2nc3ccccc3[nH]2)cs1,inactive
13,O=C(CCC(=O)N(CC(=O)NC1CCCCC1)Cc1ccccc1)Nc1ccccn1,"inconclusive: 15.8 µM [inhibitor, partial curve]"
14,COCc1nc2ccccc2n1Cc1ccccc1Br,"inconclusive: 39.8 µM [inhibitor, partial curve]"
15,COc1ccc(-c2csc3ncnc(N4CCN(Cc5ccccc5)CC4)c23)cc1,"inconclusive: 7.08 µM [fluorescent, side channel, full curve]"
16,FC(F)(F)c1cccc(NC(=S)NCC2COc3ccccc3O2)c1 (centres undefined),"inconclusive: 25.1 µM [quencher, side channel, partial curve]"
17,CC1CCCCN1S(=O)(=O)c1ccc(C(=O)Nc2nnc(-c3cccs3)o2)cc1 (centres undefined),"inconclusive: 17.8 µM [quencher, side channel, single point]"
18,COc1ccc(NC(=O)CCNS(=O)(=O)c2ccc(NC(C)=O)cc2)cc1Cl,"inconclusive: 50.1 µM [quencher, side channel, partial curve]"
19,Cn1cccc1C(=O)N1CCC2(CCCN(Cc3ccc(C#N)cc3)C2)CC1,"inconclusive: 22.4 µM [inhibitor, partial curve]"
